# Source: PubChem BioAssay AID504832 (National Center for Advancing Translational Sciences (NCATS), 2011)
# In all, about 310,000 compounds went through this assay and about 18,000 (5.8%) were called active. The shares of active, inactive and inconclusive entries below differ from those in the screen. Calls come from the whole dose curve; as a rule, active = well fitted inhibition curve with a large enough effect; inconclusive = small, poorly fitted or top-dose-only effect, or another doubt; inactive = no such curve, though single readings can be large or run the other way. Potencies of inconclusive entries are left out as doubtful fits.
# Experiment: Primary qHTS for delayed death inhibitors of the malarial parasite plastid, 48 hour incubation
# Conditions: P. falciparum luciferase growth in erythrocytes; series mostly up to 28.7 µM; activity change, negative = inhibition: at the top concentration
# Method in brief: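 Growth was read as firefly luciferase luminescence after a 48 h, 37 C, 5% CO2 exposure of compounds to reporter-bearing P. falciparum cultures (0.1% parasitemia, 2% hematocrit final) in Albumax-supplemented RPMI 1640.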
# % is set by controls: 0 for no effect and ±100 for the full control effect; potency is the fitted concentration of half-maximal effect; tags give direction and shape of the fitted curve.
Structure (SMILES),Potency,"activity change, negative = inhibition"
COc1ccc(C2NCc3ccc4c(c3-n3cccc32)OCO4)cc1O (stereo not given),active: 6.57 µM,–
COc1cccc(C2CN(c3ccc(F)cc3F)N=C2c2cccs2)c1OC (stereo not given),active: 5.86 µM,–
CN(C)/C=N/c1c(C(=O)NCc2ccccc2)nnn1Cc1ccccc1,active: 2.62 µM,–
O=C(Nc1ccc(F)cc1)C1CC(=O)n2cnnc2N1 (stereo not given),–,inactive: -30.6%
C/C=C/c1ccc(OCC(=O)Nc2cc(S(=O)(=O)N3CCOCC3)ccc2N2CCCC2)c(OC)c1,active: 13.1 µM,–
O=C(N/N=C\c1cccnc1)c1cc(-c2ccccc2)nc2c(Cl)cccc12,"inconclusive [inhibitor, single point]",–
CC1(NC(=O)c2cccc(S(=O)(=O)N3CCCc4ccccc43)c2)CCS(=O)(=O)C1 (stereo not given),"inconclusive [inhibitor, partial curve, poor fit]",–
COC(=O)c1sc(NC(=O)COc2cccnc2[N+](=O)[O-])c(C(=O)OC)c1C,"inconclusive [inhibitor, single point]",–
O=C(O)CCNc1cc(N2CCN(C(=O)c3ccco3)CC2)c2noc3c2c1C(=O)c1ccccc1-3,"inconclusive [inhibitor, single point]",–
Cc1cc(C(C)(C)C)cc(C)c1S(=O)(=O)N1CC(=O)Nc2ccccc21,"inconclusive [inhibitor, single point]",–
Nc1c(N(CCC2=CCCCC2)C(=O)Cc2ccccc2F)c(=O)[nH]c(=O)n1Cc1ccccc1,"inconclusive [inhibitor, single point]",–
COc1cc(OC)cc(C(=O)NNC(=S)Nc2ccccc2OC)c1,–,inactive: 22.5%
Cc1c(C)n(Cc2ccccc2)c2ccc(C(=O)NCCN3CCOCC3)cc12,–,inactive: -10.4%
CN(c1cccc(NC(=O)c2cccc([N+](=O)[O-])c2)c1)S(C)(=O)=O,"inconclusive [inhibitor, single point]",–
CCOc1ccc(-n2c(SCc3nc(-c4cccs4)no3)nnc2-c2ccncc2)cc1,"inconclusive [inhibitor, single point]",–
O=C(c1ccc(OC2CCN(CCc3ccccc3)CC2)cc1)N1CCCC(CCCO)C1 (stereo not given),"inconclusive [inhibitor, partial curve, poor fit]",–
Cn1c(SCc2cccc(F)c2)nnc1-c1ccccn1,–,inactive: 60.6%
CC(C)=CC1C(C(=O)Nc2ccc(Br)cn2)C1(C)C (stereo not given),"inconclusive [inhibitor, single point]",–
O=C(CN1CCCC1)Nc1c2c(nc3ccccc13)N(Cc1ccccc1)CC2,"inconclusive [inhibitor, single point]",–
OCC1(Cc2ccccc2Cl)CCN(C/C=C/c2ccccc2)CC1,active: 11.7 µM,–
Fc1ccccc1Cc1noc(CN2CCN(C/C=C/c3ccccc3)CC2)n1,"inconclusive [inhibitor, single point]",–
O=C(COC(=O)/C=C/c1cccs1)Nc1cccc(S(=O)(=O)N2CCCC2)c1,"inconclusive [inhibitor, partial curve]",–
Cc1cccc(Cc2nnc(CCC(=O)NCc3ccncc3C)o2)c1,"inconclusive [inhibitor, single point]",–

Structure (SMILES),Potency,"activity change, negative = inhibition"
COc1ccc(CN2C(=O)COc3ccccc32)cc1,"inconclusive [inhibitor, full curve, poor fit]",–
O=C(N/N=C/c1sc(N2CCCCC2)nc1-c1cccs1)C1CC1,active: 10.4 µM,–
CC(NC(=O)C1CCN(S(=O)(=O)c2cccs2)CC1)c1cccc(Cl)c1 (stereo not given),"inconclusive [inhibitor, single point]",–
CCn1c(SCC(=O)Nc2ccc(C)cc2)nc2sc3c(c2c1=O)CCN(C)C3,active: 3.7 µM,–
COc1ccc(Br)cc1C(=O)Nc1ccc(O)cc1,–,inactive: 21.7%
O=C(c1cccs1)N1CCCC(c2nc3c(nnn3Cc3ccc(F)cc3)c(=O)[nH]2)C1 (stereo not given),"inconclusive [inhibitor, partial curve, poor fit]",–
CC1=C(C(=O)OCc2ccccc2)C(c2cccc(Br)c2)NC(=O)N1 (stereo not given),"inconclusive [inhibitor, full curve, poor fit]",–
CCOC(=O)N1CCc2c(sc3c2c(=O)n(Cc2ccccc2)c(=O)n3CC(=O)NCC2CCCO2)C1 (stereo not given),active: 5.86 µM,–
O=C(c1ccc(COc2ccc(F)cc2)o1)n1cccn1,–,inactive: 51.1%
COc1cccc(-n2c(SCC(=O)Nc3sc4c(c3C(N)=O)CCC4)nc3ccccc3c2=O)c1,active: 4.15 µM,–
C(=N/Nc1nccs1)/c1cccnc1,"inconclusive [inhibitor, full curve, poor fit]",–
Cc1ccccc1NS(=O)(=O)c1cc(C(=O)Nc2cccnc2)ccc1C,"inconclusive [inhibitor, partial curve, poor fit]",–
CCN1CCN(C(=O)C(C)Sc2nnc3nc(C)cc(C)n23)CC1 (stereo not given),–,inactive: 59.5%
COc1ccc(/C=N/NC(=O)NC23CC4CC(CC(C4)C2)C3)c(OC)c1,active: 8.28 µM,–
CC(C)C1COC(c2cccn2Cc2ccccc2Cl)=N1 (stereo not given),"inconclusive [inhibitor, partial curve, poor fit]",–
COC(=O)CNC(c1ccccc1Cl)c1cc(Br)ccc1NS(=O)(=O)c1ccc(C)cc1 (stereo not given),active: 3.29 µM,–
CCOc1ccc(-c2c(=O)n(OCc3ccccc3Br)c3ccccc3[n+]2[O-])c(OCC)c1,"inconclusive [inhibitor, single point]",–
COc1ccc([C@H]2[C@H](C(=O)OC(C)(C)C)N3N=Cc4ccccc4C3C23C(=O)c2ccccc2C3=O)c(OC)c1 (stereo not given in full),active: 2.94 µM,–
O=C(CN1CCN(c2ncccn2)CC1)Nc1ccccc1C(F)(F)F,"inconclusive [inhibitor, single point]",–
Nc1nc(CN2CCN(c3ccccc3F)CC2)nc(N2CCCc3ccccc32)n1,–,inactive: -28.6%
S=C(Nc1ccc(Cl)cc1)NC1CC2CCCC(C1)N2C1CCCC1 (stereo not given),active: 10.4 µM,–
CN(C)CCNC(=O)c1onc(CSc2ccc(F)c(F)c2)c1C(=O)NCCN(C)C,active: 8.28 µM,–
